Test results as given in the antibiotic and cytotoxicity screens of Wong et al. (2023).
The list shows a part of the results.

Assays:
[1] = system: HSkMC (human skeletal muscle cells); assay: cytotoxicity call (relative viability < 0.9); details: 10 µM
[2] = system: HepG2; assay: cytotoxicity call (relative viability < 0.9); details: 10 µM
[3] = system: S. aureus RN4220; assay: growth inhibition call (relative growth <= 0.2); details: 50 µM

## C[C@@H]1CCCCO[C@@H](CN(C)C(=O)Cc2ccccc2)[C@H](C)CN([C@@H](C)CO)C(=O)c2cc(NC(=O)CCC(F)(F)F)ccc2O1
[1]
  cytotoxicity call: inactive
[2]
  cytotoxicity call: inactive
[3]
  growth inhibition call: inactive

## COC[C@]1(O)CCN(C(=O)CCN(C)S(C)(=O)=O)CC1(C)C
[1]
  cytotoxicity call: inactive
[2]
  cytotoxicity call: inactive
[3]
  growth inhibition call: inactive

## Cc1ccc(S(=O)(=O)Nc2ccc3c(c2)CC(=O)N([C@H](C)CO)C[C@@H](C)[C@H](CN(C)Cc2ccc(-c4ccccc4)cc2)O3)cc1
[1]
  cytotoxicity call: active
[2]
  cytotoxicity call: active
[3]
  growth inhibition call: inactive

## COc1ccc(NC(=O)N(C)C[C@H]2Oc3c(NS(=O)(=O)c4cn(C)cn4)cccc3C(=O)N([C@H](C)CO)C[C@@H]2C)cc1
[1]
  cytotoxicity call: inactive
[2]
  cytotoxicity call: inactive
[3]
  growth inhibition call: inactive

## C[C@@H]1CN([C@@H](C)CO)C(=O)c2cc(NC(=O)Nc3ccc(F)cc3)ccc2O[C@@H](C)CCCCO[C@@H]1CN(C)C(=O)CCCN(C)C
[1]
  cytotoxicity call: inactive
[2]
  cytotoxicity call: inactive
[3]
  growth inhibition call: inactive

## Cc1noc(C)c1S(=O)(=O)Nc1ccc2c(c1)C(=O)N([C@@H](C)CO)C[C@@H](C)[C@@H](CN(C)C)OCCCC[C@@H](C)O2
[1]
  cytotoxicity call: inactive
[2]
  cytotoxicity call: inactive
[3]
  growth inhibition call: inactive
